Measurements reported in article PMC5053539.
No constants are given. Whether binding was seen depends on the method and setting. Some results given as binding are weak or reduced against the parent protein; the word gives no strength. Sequences can lack the tags named with a protein.

T1: DB::GPR-1 (C. elegans) (UniProt Q95QJ7)
T1 sequence: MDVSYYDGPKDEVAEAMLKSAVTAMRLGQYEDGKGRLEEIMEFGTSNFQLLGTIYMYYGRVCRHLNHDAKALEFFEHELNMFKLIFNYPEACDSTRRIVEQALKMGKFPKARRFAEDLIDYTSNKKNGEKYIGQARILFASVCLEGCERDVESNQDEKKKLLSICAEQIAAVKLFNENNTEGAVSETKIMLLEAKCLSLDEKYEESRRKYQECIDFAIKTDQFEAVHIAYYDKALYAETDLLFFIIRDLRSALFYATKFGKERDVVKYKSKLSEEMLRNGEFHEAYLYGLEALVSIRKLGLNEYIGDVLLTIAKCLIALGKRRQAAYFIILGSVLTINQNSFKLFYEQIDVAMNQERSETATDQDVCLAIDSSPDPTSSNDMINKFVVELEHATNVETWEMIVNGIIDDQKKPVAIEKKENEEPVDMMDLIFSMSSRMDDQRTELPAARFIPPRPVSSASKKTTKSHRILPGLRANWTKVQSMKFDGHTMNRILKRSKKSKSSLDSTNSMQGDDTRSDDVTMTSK


Tests used:
[1] = target: T1, DB::GPR-1 (C. elegans); test: two-hybrid; reverse two-hybrid: DB::GPR-1 bait, mutagenised AD::LIN-5 609-821 prey, yeast strain MB004, selection on Sc -leu-trp + 5-FOA; single amino acid changes re-cloned and re-tested on Sc -leu-trp-his + 3-AT and Sc -leu-trp-ura plates
[2] = target: T1, DB::GPR-1 (C. elegans); test: two-hybrid; DB::GPR-1 bait, AD::LIN-5 full length (wild type and point mutants) prey, yeast strain MB004; Sc -leu-trp-his + 3-AT plates at 30°C
[3] = target: T1, DB::GPR-1 (C. elegans); test: two-hybrid; DB::GPR-1 bait, AD::LIN-5 full length point mutant prey, yeast strain MB004; Sc -leu-trp-his + 3-AT plates at reduced temperature (20°C)
[4] = target: T1, DB::GPR-1 (C. elegans); test: two-hybrid; DB::GPR-1 bait, AD::LIN-5 fragments prey, yeast strain Y8930; growth on Sc -leu-trp-his + 2 mM 3-AT and Sc -leu-trp-ade plates

Row | Binder | binding [2] | binding [1] | further results
1 | AD::LIN-5 fragment, amino acids 609–821 (domain or fragment, UniProt P45970 609-821) SRVDLIQRLEHEVADLREKESAEIKKSTWMGERIKIFQQAPMRGSRIRCGSPDSLPDFLADNGPTITEEELRAQLATFPRKSIAPSVDDNEFDKGTPIGFKSNMYDGRESICSLDFFDRSSLQRSSMRSESIQLASPSSAGEFKQPFTPSGVTKERVGVLTARNEKVKPHLKCSYASEVGSTNSPSADEENIKKSKKKNRRDSIFSAFSSKKQ | – | binds | –
2 | AD::LIN-5 609–821 S662 altered to cysteine (domain or fragment, UniProt P45970 609-821) SRVDLIQRLEHEVADLREKESAEIKKSTWMGERIKIFQQAPMRGSRIRCGSPDCLPDFLADNGPTITEEELRAQLATFPRKSIAPSVDDNEFDKGTPIGFKSNMYDGRESICSLDFFDRSSLQRSSMRSESIQLASPSSAGEFKQPFTPSGVTKERVGVLTARNEKVKPHLKCSYASEVGSTNSPSADEENIKKSKKKNRRDSIFSAFSSKKQ | – | no binding | –
3 | AD::LIN-5 609–821 L663S (domain or fragment, UniProt P45970 609-821) SRVDLIQRLEHEVADLREKESAEIKKSTWMGERIKIFQQAPMRGSRIRCGSPDSSPDFLADNGPTITEEELRAQLATFPRKSIAPSVDDNEFDKGTPIGFKSNMYDGRESICSLDFFDRSSLQRSSMRSESIQLASPSSAGEFKQPFTPSGVTKERVGVLTARNEKVKPHLKCSYASEVGSTNSPSADEENIKKSKKKNRRDSIFSAFSSKKQ | – | no binding | –
4 | AD::LIN-5 609–821 S662 altered to asparagine (domain or fragment, UniProt P45970 609-821) SRVDLIQRLEHEVADLREKESAEIKKSTWMGERIKIFQQAPMRGSRIRCGSPDNLPDFLADNGPTITEEELRAQLATFPRKSIAPSVDDNEFDKGTPIGFKSNMYDGRESICSLDFFDRSSLQRSSMRSESIQLASPSSAGEFKQPFTPSGVTKERVGVLTARNEKVKPHLKCSYASEVGSTNSPSADEENIKKSKKKNRRDSIFSAFSSKKQ | – | no binding | –
5 | AD::LIN-5 609–821 S662 altered to glycine (domain or fragment, UniProt P45970 609-821) SRVDLIQRLEHEVADLREKESAEIKKSTWMGERIKIFQQAPMRGSRIRCGSPDGLPDFLADNGPTITEEELRAQLATFPRKSIAPSVDDNEFDKGTPIGFKSNMYDGRESICSLDFFDRSSLQRSSMRSESIQLASPSSAGEFKQPFTPSGVTKERVGVLTARNEKVKPHLKCSYASEVGSTNSPSADEENIKKSKKKNRRDSIFSAFSSKKQ | – | no binding | –
6 | AD::LIN-5 full length (protein, UniProt P45970 1-821) MSVSTSVVKSMLQLTNYFGSNFTPKTETISSLAELWERHGSMIASMMSCDTREFGTADKFYEVIFRKIATTSLSFMTDSLEPKLAASGDSLEICKFYALFLEYMRKDHSGMLTRALEQASSENRVDTAVLLDMFLFFDNVYSESTADDWWACLRRDDEDQEASSGFRTPKRNNYSLTSLQTPTATARRLRTASSTARRSPIAEAVDSPTMKFMRSERELKQSKARIFGLEQMLGDLEDDKTKLSAENRTLKLSNSDLKSDIAKLKGIAEEAQFRAEELSCDLEAKKDEVHNILQQLNESRMTLRSEQRSLEEADIKKENLTAKLKTVTEDNGKLMKQARELRDLNDYEFARFRQQEQELTETLRATQDQMADLQEQLTGVEKIRASLKSENESLSASVEELSVASLRNKQDADNSKTMLSEELARFEETVDKLRQEKLEALSMANSRIDALRLEHSEREKMMKSTNARLQADLDEERNEKKRLMNLWNELNEKSLNVDKAVHKSNEEFQSMGSCLQNAKRQIEQLEVACKSKDDIIKFQEEQNKRAANLIKNEKAIRDQASAQFAEKLAILKNSLAEKENETVTLKENFASVVMKHKAELEEKELFLQSRVDLIQRLEHEVADLREKESAEIKKSTWMGERIKIFQQAPMRGSRIRCGSPDSLPDFLADNGPTITEEELRAQLATFPRKSIAPSVDDNEFDKGTPIGFKSNMYDGRESICSLDFFDRSSLQRSSMRSESIQLASPSSAGEFKQPFTPSGVTKERVGVLTARNEKVKPHLKCSYASEVGSTNSPSADEENIKKSKKKNRRDSIFSAFSSKKQ | binds | – | –
7 | AD::LIN-5 full length L663S (protein, UniProt P45970 1-821) MSVSTSVVKSMLQLTNYFGSNFTPKTETISSLAELWERHGSMIASMMSCDTREFGTADKFYEVIFRKIATTSLSFMTDSLEPKLAASGDSLEICKFYALFLEYMRKDHSGMLTRALEQASSENRVDTAVLLDMFLFFDNVYSESTADDWWACLRRDDEDQEASSGFRTPKRNNYSLTSLQTPTATARRLRTASSTARRSPIAEAVDSPTMKFMRSERELKQSKARIFGLEQMLGDLEDDKTKLSAENRTLKLSNSDLKSDIAKLKGIAEEAQFRAEELSCDLEAKKDEVHNILQQLNESRMTLRSEQRSLEEADIKKENLTAKLKTVTEDNGKLMKQARELRDLNDYEFARFRQQEQELTETLRATQDQMADLQEQLTGVEKIRASLKSENESLSASVEELSVASLRNKQDADNSKTMLSEELARFEETVDKLRQEKLEALSMANSRIDALRLEHSEREKMMKSTNARLQADLDEERNEKKRLMNLWNELNEKSLNVDKAVHKSNEEFQSMGSCLQNAKRQIEQLEVACKSKDDIIKFQEEQNKRAANLIKNEKAIRDQASAQFAEKLAILKNSLAEKENETVTLKENFASVVMKHKAELEEKELFLQSRVDLIQRLEHEVADLREKESAEIKKSTWMGERIKIFQQAPMRGSRIRCGSPDSSPDFLADNGPTITEEELRAQLATFPRKSIAPSVDDNEFDKGTPIGFKSNMYDGRESICSLDFFDRSSLQRSSMRSESIQLASPSSAGEFKQPFTPSGVTKERVGVLTARNEKVKPHLKCSYASEVGSTNSPSADEENIKKSKKKNRRDSIFSAFSSKKQ | – | – | binding [3]: binds weakly
8 | AD::LIN-5 fragment 609–671 (domain or fragment, UniProt P45970 609-671) SRVDLIQRLEHEVADLREKESAEIKKSTWMGERIKIFQQAPMRGSRIRCGSPDSLPDFLADNG | – | – | binding [4]: no binding

Second part, led by results:

Row | binding [2] | Binder | binding [1] | further results
9 | binds | AD::LIN-5 full length S659A (protein, UniProt P45970 1-821) MSVSTSVVKSMLQLTNYFGSNFTPKTETISSLAELWERHGSMIASMMSCDTREFGTADKFYEVIFRKIATTSLSFMTDSLEPKLAASGDSLEICKFYALFLEYMRKDHSGMLTRALEQASSENRVDTAVLLDMFLFFDNVYSESTADDWWACLRRDDEDQEASSGFRTPKRNNYSLTSLQTPTATARRLRTASSTARRSPIAEAVDSPTMKFMRSERELKQSKARIFGLEQMLGDLEDDKTKLSAENRTLKLSNSDLKSDIAKLKGIAEEAQFRAEELSCDLEAKKDEVHNILQQLNESRMTLRSEQRSLEEADIKKENLTAKLKTVTEDNGKLMKQARELRDLNDYEFARFRQQEQELTETLRATQDQMADLQEQLTGVEKIRASLKSENESLSASVEELSVASLRNKQDADNSKTMLSEELARFEETVDKLRQEKLEALSMANSRIDALRLEHSEREKMMKSTNARLQADLDEERNEKKRLMNLWNELNEKSLNVDKAVHKSNEEFQSMGSCLQNAKRQIEQLEVACKSKDDIIKFQEEQNKRAANLIKNEKAIRDQASAQFAEKLAILKNSLAEKENETVTLKENFASVVMKHKAELEEKELFLQSRVDLIQRLEHEVADLREKESAEIKKSTWMGERIKIFQQAPMRGSRIRCGAPDSLPDFLADNGPTITEEELRAQLATFPRKSIAPSVDDNEFDKGTPIGFKSNMYDGRESICSLDFFDRSSLQRSSMRSESIQLASPSSAGEFKQPFTPSGVTKERVGVLTARNEKVKPHLKCSYASEVGSTNSPSADEENIKKSKKKNRRDSIFSAFSSKKQ | – | –
10 | binds | AD::LIN-5 full length S662A (protein, UniProt P45970 1-821) MSVSTSVVKSMLQLTNYFGSNFTPKTETISSLAELWERHGSMIASMMSCDTREFGTADKFYEVIFRKIATTSLSFMTDSLEPKLAASGDSLEICKFYALFLEYMRKDHSGMLTRALEQASSENRVDTAVLLDMFLFFDNVYSESTADDWWACLRRDDEDQEASSGFRTPKRNNYSLTSLQTPTATARRLRTASSTARRSPIAEAVDSPTMKFMRSERELKQSKARIFGLEQMLGDLEDDKTKLSAENRTLKLSNSDLKSDIAKLKGIAEEAQFRAEELSCDLEAKKDEVHNILQQLNESRMTLRSEQRSLEEADIKKENLTAKLKTVTEDNGKLMKQARELRDLNDYEFARFRQQEQELTETLRATQDQMADLQEQLTGVEKIRASLKSENESLSASVEELSVASLRNKQDADNSKTMLSEELARFEETVDKLRQEKLEALSMANSRIDALRLEHSEREKMMKSTNARLQADLDEERNEKKRLMNLWNELNEKSLNVDKAVHKSNEEFQSMGSCLQNAKRQIEQLEVACKSKDDIIKFQEEQNKRAANLIKNEKAIRDQASAQFAEKLAILKNSLAEKENETVTLKENFASVVMKHKAELEEKELFLQSRVDLIQRLEHEVADLREKESAEIKKSTWMGERIKIFQQAPMRGSRIRCGSPDALPDFLADNGPTITEEELRAQLATFPRKSIAPSVDDNEFDKGTPIGFKSNMYDGRESICSLDFFDRSSLQRSSMRSESIQLASPSSAGEFKQPFTPSGVTKERVGVLTARNEKVKPHLKCSYASEVGSTNSPSADEENIKKSKKKNRRDSIFSAFSSKKQ | – | –
